# The campaign covered roughly 110,000 compounds. About 230 (0.21%) showed an effect of 50% or more. Some of the results follow.
# Molecular target: DPAP1 (Plasmodium falciparum, UniProt Q8IIJ9)
# Experiment: primary screen, percent inhibition; read by cleavage of a fluorogenic dipeptide substrate; higher = more effect of the substance
# Design: species or system P. falciparum D10 trophozoite lysates; single well
# 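Further: 30 min substrate incubation versus DMSO and 10 µM JCP410 controls.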
# Chain of DPAP1 (Q8IIJ9 whole entry, looked up): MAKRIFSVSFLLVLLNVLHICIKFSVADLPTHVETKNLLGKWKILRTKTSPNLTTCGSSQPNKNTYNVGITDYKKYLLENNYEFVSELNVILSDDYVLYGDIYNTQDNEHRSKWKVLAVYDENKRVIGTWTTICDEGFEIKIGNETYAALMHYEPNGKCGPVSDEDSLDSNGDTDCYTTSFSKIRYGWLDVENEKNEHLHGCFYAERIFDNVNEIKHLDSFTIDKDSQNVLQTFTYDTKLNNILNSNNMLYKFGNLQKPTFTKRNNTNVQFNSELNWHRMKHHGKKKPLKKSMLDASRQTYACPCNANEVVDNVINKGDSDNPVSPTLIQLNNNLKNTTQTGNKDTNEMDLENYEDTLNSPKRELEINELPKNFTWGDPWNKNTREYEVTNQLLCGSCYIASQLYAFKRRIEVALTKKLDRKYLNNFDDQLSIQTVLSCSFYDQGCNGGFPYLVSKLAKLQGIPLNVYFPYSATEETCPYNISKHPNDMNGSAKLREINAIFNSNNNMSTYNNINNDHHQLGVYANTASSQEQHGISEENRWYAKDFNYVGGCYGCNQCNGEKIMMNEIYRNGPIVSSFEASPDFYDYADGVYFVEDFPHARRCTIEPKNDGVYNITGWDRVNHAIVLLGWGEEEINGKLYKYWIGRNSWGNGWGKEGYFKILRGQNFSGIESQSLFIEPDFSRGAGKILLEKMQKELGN
row,Compound,% Inhibition @ 10 uM
1,COc1ccc(-n2cccc2C=C2C(=O)NC(=O)NC2=O)cc1,3.86%
2,Cc1nnc2c(NCc3ccco3)nc3ccc(C(=O)c4ccccc4)cc3n12,-6.09%
3,Cn1c(N2CCOCC2)nc2c1c(=O)n(Cc1c(F)cccc1Cl)c(=O)n2C,1.97%
4,Cc1ccc(S(=O)(=O)NCCCCCC(=O)NC(C)(C)CO)cc1,3.87%
5,Cc1nc2ccc(S(=O)(=O)NC(C(=O)NC3CCCC(C)C3C)C(C)C)cc2s1 (stereo not shown),1.62%
6,COc1ccc(NC(=O)CNS(=O)(=O)c2ccc(C)cc2)cc1OC,-2.73%
7,Cc1nn(CCCC(=O)NCCCN2CCOCC2)c(=O)c2cc3sccc3n12,0.137%
8,O=C(c1nsc2ccccc12)N1CCCCC1,10.5%
9,COc1ccc(C2CC(=O)Nc3c2c(=O)n(C)c2ncnn32)cc1OC (stereo not shown),4.46%
10,O=C1c2ccccc2C(=O)N1Cc1ccc2c(c1)OCO2,2.39%
11,Cc1ccc(CNCc2cccn2-c2nnc(N3CCOCC3)s2)o1,-1.61%
12,CCOc1cc(C2C3=C(CC(C)(C)CC3=O)OC3=C2C(=O)CC(C)(C)C3)c(Br)cc1O,-0.173%
13,COc1ccc(NC(=O)CN(c2ccccc2)S(=O)(=O)c2ccccc2)c(OC)c1,0.0265%
14,Cc1cc2c(c(=O)n1CC1CCCO1)C(c1cc3c(cc1Br)OCO3)C(C#N)=C(N)O2 (stereo not shown),2.31%
15,Cc1ccccc1Nc1nc(-c2ccc(Cl)cc2)c(C)s1,1.7%
16,CN(C)C(=O)N1CCCC(C(=O)NCc2ccccc2)C1 (stereo not shown),2.05%
17,Cn1ccnc1SCC(=O)Nc1nc(-c2ccccc2)cs1,0.751%
18,COc1ccccc1-n1c(S)nnc1CNC(=O)c1ccc(S(=O)(=O)N2CCOCC2)cc1,-3.98%
19,CCOC(=O)C1=C(CC)OC(N)=C(C#N)C1c1ccc(C(F)(F)F)cc1 (stereo not shown),-5.96%
20,COCCCNC(=O)C1=CCN(S(=O)(=O)c2ccc(OC)cc2)CC1,1.93%
21,Cc1nn(-c2ccccc2)c2c1N(CC(=O)NCCCc1ccccc1)C(=O)CS2,0.762%
22,CCOc1cccc(NC(=O)c2ccc(C(C)(C)C)cc2)c1,3.24%

row,Compound,% Inhibition @ 10 uM
1,CC1=C(c2ccc(Cl)cc2)S(=O)(=O)N=C1N1CCC(C(=O)NCCC(C)C)CC1,-1.38%
2,COc1ccc2nc(C)c(C(=O)N3CCN(Cc4ccccc4)CC3)cc2c1,2.77%
3,C=CCc1cccc2cc(C(=O)Nc3ccccc3O)c(=O)oc12,1.13%
4,CC(C)c1ccc(C2=CC(c3cc(Br)ccc3OC(F)F)n3nnnc3N2)cc1 (stereo not shown),-3.46%
5,O=C(NC1CCCC1)C1CCN(c2ccc(-c3cccs3)nn2)CC1,-3.98%
6,C/C(=N\[C@@H](CS(=O)(=O)Cc1ccccc1OC(F)F)C(=O)NCC#N)NS(=O)(=O)c1cccnc1,-3.14%
7,CCn1c(C(=O)N2CCCC(C(=O)NCCCc3ccccc3)C2)cc2sccc21 (stereo not shown),-3%
8,COc1cccc(-c2cc(C(=O)Nc3cccc(C(C)=O)c3)c3ccccc3n2)c1,-1.12%
9,O=C(CCCCCNS(=O)(=O)c1ccc(Br)cc1)NCc1ccccc1,-1.99%
10,CN(CC(=O)O)S(=O)(=O)c1ccc2c(c1)OCCO2,2.73%
11,COc1ccc(CNCc2ccccc2OC)cc1Br,2.26%
12,Cc1nnc(N2CCC(C(=O)NCCC3=CCCCC3)CC2)c2nn(-c3ccc(Cl)cc3)c(C)c12,4.54%
13,C=CCSc1ncnc2sc3c(c12)CCCC3,43.1%
14,CC(=O)N1c2ccccc2N=C2CC(C)(C)CC(O)=C2C1c1ccc(-c2cccc(C(=O)O)c2)o1 (stereo not shown),-2.54%
15,O=S(=O)(Nc1ccc(Cc2ccncc2)cc1)c1ccc(Br)cc1,-3.03%
16,O=C(CN1C(=O)S/C(=C/c2cccc(O)c2)C1=O)Nc1cccc2ccccc12,13.3%
17,Cc1nc2ccc(NC(=O)N3CCN(c4ccccn4)CC3)cc2s1,-4.15%
18,Brc1cnc(N2CCOCC2)nc1,-8.63%
19,CCCCCOc1ccc(C(=O)Nc2nonc2CC)cc1,-3.49%
20,OCC1CCCN1C1CCCCCC1 (stereo not shown),2.99%
21,Cc1cc(OCC(O)CNC(C)(C)C)ccc1C(C)C (stereo not shown),-2.34%
22,Cc1cc(C)nc(-n2nc(C)cc2Nc2ccccc2)n1,-0.479%

row,Compound,% Inhibition @ 10 uM
1,CC(=O)NCc1nc2ccccc2n1C,4.02%
2,CCc1ccc(CN(Cc2ccco2)C(=O)c2ccc(F)cc2)cc1,0.635%
3,FC(F)(F)c1cc(-c2cccs2)nc2nc(S)nn12,1.42%
4,CCS(=O)(=O)c1nc(S(=O)(=O)c2ccc(C)cc2)c(N2CCCC(C)C2)s1 (stereo not shown),-5.89%
5,CN1CCN(Cc2c(F)cccc2Cl)CC1,-3.79%
6,O=C(NC1CCCCCC1)c1cccnc1Cl,-1.12%
7,COc1nc(-c2ccccc2)nc(C)c1C,0.163%
8,CCOc1ccc(C(=O)Nc2ccccc2OC)cc1,-1.07%
9,COc1ccc(C=C2C(=O)c3ccccc3C2=O)c(C)c1,1.19%
10,Cc1ccc(SCc2cc(O)nc(Nc3nc4ccccc4o3)n2)cc1,5.55%
11,COc1ccc2cc3cc(C(=O)NCCc4ccc(OC)c(OC)c4)oc3nc2c1,3.53%
12,CCc1ccccc1NC(=O)COc1ccc(Cl)cc1Cl,-5.41%
13,CCOc1ccccc1OCc1nn2c(-c3cc(OC)c(OC)c(OC)c3)nnc2s1,-2.21%
14,Cc1nn(CCCC(=O)NCCCN2CCCC2=O)c(=O)c2c1sc1ccccc12,-5.27%
15,Cc1cc(NC(=O)CSc2nc3c(c(=O)n2C)SC(C)C3)no1 (stereo not shown),0.205%
16,COc1cc2nc(SCc3ccc(Cl)cc3)n3nc(C)nc3c2cc1OC,-2.29%
17,CCOC(=O)c1ccc(S(=O)(=O)N2CCN(CCC#N)CC2)cc1,-1.82%
18,CCN1C(=O)/C(=C\c2cc3c(cc2OC)OCO3)S/C1=N\c1ccc(N2CCOCC2)cc1,38.5%
19,Cc1nc2cc(NC(=O)N3CCN(c4ccccc4)CC3)ccc2o1,-6.36%
20,COc1ccc(C)cc1N(CC(=O)N1CCCCCC1)S(=O)(=O)c1ccc(C)cc1,0.956%

# Reference: PMC6919601, “Identification of Plasmodium dipeptidyl aminopeptidase allosteric inhibitors by high throughput screening” (PLoS ONE, 2019)
